Measured values taken from patent US20130131319A1 (Chugai, published 2013).

Biological target: T1, mouse FcRn (mouse, UniProt Q61559 22-297; P01887 21-119, limits assumed)
T1 sequence (looked up) 1: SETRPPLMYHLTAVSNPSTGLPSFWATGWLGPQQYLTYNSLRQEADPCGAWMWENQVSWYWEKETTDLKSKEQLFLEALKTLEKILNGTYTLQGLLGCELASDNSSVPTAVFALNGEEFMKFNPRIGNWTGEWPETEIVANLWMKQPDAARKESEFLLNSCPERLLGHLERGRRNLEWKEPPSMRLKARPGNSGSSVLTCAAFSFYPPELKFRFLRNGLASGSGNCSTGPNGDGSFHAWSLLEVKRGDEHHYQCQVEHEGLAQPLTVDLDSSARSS
T1 sequence (looked up) 2: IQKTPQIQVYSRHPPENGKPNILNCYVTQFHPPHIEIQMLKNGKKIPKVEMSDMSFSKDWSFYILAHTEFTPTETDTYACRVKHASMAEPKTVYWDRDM
Experiment: Biacore pH 7.4, 25C, mouse FcRn analyte

B1: VH3/L (WT)-IgG1-F20 (antibody)
heavy: QVQLQESGPGLVKPSETLSLTCAVSGHSISHDHAWSWVRQPPGEGLEWIGFISYSGITNYNPSLQGRVTISRDNSKNTLYLQMNSLRAEDTAVYYCARSLARTTAMDYWGEGTLVTVSS[human IgG1 constant region with V308F N434Y (EU numbers) omitted here]
light: DIQMTQSPSSLSASVGDRVTITCRASQDISSYLNWYQQKPGKAPKLLIYYTSRLHSGVPSRFSGSGSGTDFTFTISSLQPEDIATYYCQQGNTLPYTFGQGTKVEIKRTVAAPSVFIFPPSDEQLKSGTASVVCLLNNFYPREAKVQWKVDNALQSGNSQESVTEQDSKDSTYSLSSTLTLSKADYEKHKVYACEVTHQGLSSPVTKSFNRGEC
notes: copies: 2 + 2
Q: How did the Kd turn out when B1 was run?
A: Its Kd is 117 nM.
